Data on one molecule can be found in paper PMC11394198.

The chains behind the UniProt entries cited, without tags or fusion partners.
UniProt P92973: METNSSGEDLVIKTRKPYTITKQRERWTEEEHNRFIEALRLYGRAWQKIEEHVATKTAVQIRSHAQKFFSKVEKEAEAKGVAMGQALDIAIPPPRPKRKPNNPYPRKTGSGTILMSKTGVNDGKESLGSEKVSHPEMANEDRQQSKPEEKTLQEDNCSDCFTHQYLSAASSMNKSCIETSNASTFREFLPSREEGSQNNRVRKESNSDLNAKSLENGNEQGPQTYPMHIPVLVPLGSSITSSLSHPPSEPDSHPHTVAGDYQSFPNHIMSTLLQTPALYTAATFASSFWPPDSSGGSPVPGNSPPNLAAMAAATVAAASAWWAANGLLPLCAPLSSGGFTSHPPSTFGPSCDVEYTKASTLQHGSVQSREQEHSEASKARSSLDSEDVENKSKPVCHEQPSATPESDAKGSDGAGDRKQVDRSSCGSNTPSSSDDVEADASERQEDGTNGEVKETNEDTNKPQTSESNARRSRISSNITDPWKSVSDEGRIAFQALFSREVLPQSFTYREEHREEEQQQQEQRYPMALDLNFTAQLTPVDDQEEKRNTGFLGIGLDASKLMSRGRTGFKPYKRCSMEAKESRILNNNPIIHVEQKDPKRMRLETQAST
UniProt Q94BT6: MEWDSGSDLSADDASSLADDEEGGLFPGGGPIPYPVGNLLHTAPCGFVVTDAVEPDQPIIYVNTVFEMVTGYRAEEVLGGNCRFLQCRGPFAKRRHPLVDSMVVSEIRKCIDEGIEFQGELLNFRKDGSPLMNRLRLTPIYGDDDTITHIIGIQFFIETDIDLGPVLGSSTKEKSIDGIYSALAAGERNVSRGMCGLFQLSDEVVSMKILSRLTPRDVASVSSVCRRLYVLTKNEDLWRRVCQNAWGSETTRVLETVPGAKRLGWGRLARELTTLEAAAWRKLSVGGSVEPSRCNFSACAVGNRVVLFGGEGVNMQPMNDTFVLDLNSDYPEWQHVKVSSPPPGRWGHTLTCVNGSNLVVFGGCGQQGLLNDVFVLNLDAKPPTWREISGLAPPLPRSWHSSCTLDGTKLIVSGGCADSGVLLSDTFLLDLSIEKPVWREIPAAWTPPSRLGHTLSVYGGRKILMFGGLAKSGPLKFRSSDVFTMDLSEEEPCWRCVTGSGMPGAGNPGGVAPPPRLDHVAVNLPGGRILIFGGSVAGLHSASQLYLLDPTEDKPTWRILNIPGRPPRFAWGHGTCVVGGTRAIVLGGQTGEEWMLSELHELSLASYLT

Holding throughout (experiment): two-hybrid; GAL4-based yeast two-hybrid, pGADT7-pGBKT7 pairs co-transformed in PJ69-4A, either (AD and BD) configuration; growth on Ade-/Leu-/Trp- SD plates at 30 °C and β-galactosidase activity (ONPG) of liquid cultures
Assay [1] addresses … CLOCK ASSOCIATED 1 (CCA1), GAL4 fusion (Arabidopsis thaliana) (UniProt P92973).
Assay [2] has as its target T1, GIGANTEA (GI), full-length, GAL4 fusion (Arabidopsis thaliana) (UniProt Q9SQI2).
T1 sequence: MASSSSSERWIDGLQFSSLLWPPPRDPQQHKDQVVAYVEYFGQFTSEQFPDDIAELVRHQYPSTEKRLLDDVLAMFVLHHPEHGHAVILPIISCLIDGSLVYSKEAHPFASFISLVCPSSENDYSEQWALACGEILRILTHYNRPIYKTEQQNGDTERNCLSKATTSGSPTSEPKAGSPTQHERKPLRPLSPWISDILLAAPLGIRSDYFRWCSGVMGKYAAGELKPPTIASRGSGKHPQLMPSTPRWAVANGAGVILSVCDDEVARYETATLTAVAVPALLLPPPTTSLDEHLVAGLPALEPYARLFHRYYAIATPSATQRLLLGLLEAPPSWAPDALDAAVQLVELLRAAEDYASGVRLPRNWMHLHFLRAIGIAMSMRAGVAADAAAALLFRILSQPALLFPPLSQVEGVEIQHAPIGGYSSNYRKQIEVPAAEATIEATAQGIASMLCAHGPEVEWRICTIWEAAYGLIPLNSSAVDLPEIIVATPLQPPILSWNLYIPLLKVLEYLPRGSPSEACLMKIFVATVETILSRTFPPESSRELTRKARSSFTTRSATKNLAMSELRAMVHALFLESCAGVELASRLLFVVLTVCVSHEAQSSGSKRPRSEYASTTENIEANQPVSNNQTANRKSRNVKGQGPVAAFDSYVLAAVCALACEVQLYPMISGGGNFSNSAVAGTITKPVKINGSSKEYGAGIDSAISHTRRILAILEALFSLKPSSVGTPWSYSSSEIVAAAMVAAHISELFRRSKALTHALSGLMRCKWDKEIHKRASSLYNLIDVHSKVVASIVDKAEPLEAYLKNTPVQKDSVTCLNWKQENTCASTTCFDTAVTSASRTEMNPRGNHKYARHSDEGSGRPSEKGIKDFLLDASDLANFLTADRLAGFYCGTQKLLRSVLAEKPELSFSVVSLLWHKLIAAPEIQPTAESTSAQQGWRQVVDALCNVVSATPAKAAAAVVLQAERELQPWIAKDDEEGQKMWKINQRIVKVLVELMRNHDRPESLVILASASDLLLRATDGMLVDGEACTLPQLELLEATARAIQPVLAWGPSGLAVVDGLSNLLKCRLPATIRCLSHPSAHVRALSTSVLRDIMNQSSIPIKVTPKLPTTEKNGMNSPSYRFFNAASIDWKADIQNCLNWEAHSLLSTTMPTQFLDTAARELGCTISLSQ

Assay [3] addresses T2, LIGHT … PERIOD 1 (LIP1), full-length, GAL4 fusion (Arabidopsis thaliana) (UniProt Q9C5J9).
T2 sequence: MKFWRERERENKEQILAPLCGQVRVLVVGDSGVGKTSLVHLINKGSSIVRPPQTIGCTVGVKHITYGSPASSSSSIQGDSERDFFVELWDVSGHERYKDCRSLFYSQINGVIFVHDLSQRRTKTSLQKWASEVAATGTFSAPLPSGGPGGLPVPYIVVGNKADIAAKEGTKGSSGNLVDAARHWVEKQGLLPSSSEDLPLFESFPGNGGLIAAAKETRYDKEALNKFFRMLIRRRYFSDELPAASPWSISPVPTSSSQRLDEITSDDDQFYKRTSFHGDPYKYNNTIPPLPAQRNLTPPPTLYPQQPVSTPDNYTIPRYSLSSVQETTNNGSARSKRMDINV

For assay [4], the target named is T3, TIMING OF CAB EXPRESSION 1 (TOC1), full-length, GAL4 fusion (Arabidopsis thaliana) (UniProt Q9LKL2).
T3 sequence: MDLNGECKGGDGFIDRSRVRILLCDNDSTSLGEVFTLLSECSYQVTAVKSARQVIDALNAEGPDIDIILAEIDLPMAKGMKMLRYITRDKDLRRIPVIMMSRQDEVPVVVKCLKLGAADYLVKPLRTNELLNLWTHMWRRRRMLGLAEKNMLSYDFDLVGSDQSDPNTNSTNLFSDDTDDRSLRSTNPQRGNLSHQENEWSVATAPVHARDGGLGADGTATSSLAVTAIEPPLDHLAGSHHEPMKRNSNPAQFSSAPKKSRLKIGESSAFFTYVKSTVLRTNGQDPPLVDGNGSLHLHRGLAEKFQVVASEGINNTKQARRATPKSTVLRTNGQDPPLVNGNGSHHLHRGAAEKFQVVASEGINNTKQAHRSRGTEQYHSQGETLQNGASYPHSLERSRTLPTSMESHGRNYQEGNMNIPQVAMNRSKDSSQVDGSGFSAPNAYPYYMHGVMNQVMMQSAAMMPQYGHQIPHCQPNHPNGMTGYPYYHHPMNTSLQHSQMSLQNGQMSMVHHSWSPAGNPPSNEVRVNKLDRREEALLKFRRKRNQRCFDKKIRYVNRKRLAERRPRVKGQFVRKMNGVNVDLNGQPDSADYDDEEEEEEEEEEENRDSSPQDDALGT

Assay [5] addresses ZEITLUPE (ZTL), full-length, GAL4 fusion (Arabidopsis thaliana) (UniProt Q94BT6).

No constants are given. Whether binding was seen depends on the method and setting. Some entries that bind do so weakly or less than the wild type. Sequences can lack the tags named with a protein.

B1: ROP (RHO OF PLANTS) GUANINE NUCLEOTIDE EXCHANGE FACTOR 7, full-length, GAL4 fusion (protein, UniProt Q9LZN0 1-546)
chain: MDGSSENLPEVEEKGRESSCCSSETTRQEEEEQSPSCTEDFTASPVSSRWSVKNIDGEKKKIRSDSRVSEVEMMKERFSKLLLGEDMSGSGNGVCTALAISNAITNLCATLFGQLWRLEPLPTEKKEMWRREMEWLLCVSDHIVEMTPTWQTFPDGTKLEIMTCRPRSDLYVNLPALRKLDNMLLEILDSFEETEFWYVDQGIMAHESAADGSSSFRKSFQRQEDKWWLPVPRVSPGGLQENSRKQLQHKRDCTNQILKAAMAINSITLADMEIPESYLESLPRKGRSCLGDLIYRYISSDQFSPECLLDCLDLSSEHQAIEIANRVESSIYLWHKRTNSKPATNTKTSWEMVKELMVDADKLELMADRAESLLLSLKQRFPGLPQTALDMSKIQYNKDIGKSILESYSRVLESLAFNIVARIDDLLFVDDLTRHSSDQIPTTLGNNGNDAPKSIAVPVSNYTTPSYSPSKQELRSSITVPPSPSRFKIPHSSSVKRVLTAYVTKNEPRLKNLPLERSSRSSSSERLSLEKCMKESLNVSNLDPGI
B1: the binding entry in assay [1] is reported as “no binding”; in assay [2], “binds”; in assay [3] it was “binds”; in assay [4] it was “binds”; in assay [5], “binds”.
